# Reference: the supplement of paper PMC3334620
# In all, about 33,000 sequences were measured (“E-score (-0.5 to 0.5)”: median about -0.043, highest 2% from about 0.37 on). The list shows a part of the results.
# Biological target: T1, Upc2 (UniProt Q12151)
# T1 sequence: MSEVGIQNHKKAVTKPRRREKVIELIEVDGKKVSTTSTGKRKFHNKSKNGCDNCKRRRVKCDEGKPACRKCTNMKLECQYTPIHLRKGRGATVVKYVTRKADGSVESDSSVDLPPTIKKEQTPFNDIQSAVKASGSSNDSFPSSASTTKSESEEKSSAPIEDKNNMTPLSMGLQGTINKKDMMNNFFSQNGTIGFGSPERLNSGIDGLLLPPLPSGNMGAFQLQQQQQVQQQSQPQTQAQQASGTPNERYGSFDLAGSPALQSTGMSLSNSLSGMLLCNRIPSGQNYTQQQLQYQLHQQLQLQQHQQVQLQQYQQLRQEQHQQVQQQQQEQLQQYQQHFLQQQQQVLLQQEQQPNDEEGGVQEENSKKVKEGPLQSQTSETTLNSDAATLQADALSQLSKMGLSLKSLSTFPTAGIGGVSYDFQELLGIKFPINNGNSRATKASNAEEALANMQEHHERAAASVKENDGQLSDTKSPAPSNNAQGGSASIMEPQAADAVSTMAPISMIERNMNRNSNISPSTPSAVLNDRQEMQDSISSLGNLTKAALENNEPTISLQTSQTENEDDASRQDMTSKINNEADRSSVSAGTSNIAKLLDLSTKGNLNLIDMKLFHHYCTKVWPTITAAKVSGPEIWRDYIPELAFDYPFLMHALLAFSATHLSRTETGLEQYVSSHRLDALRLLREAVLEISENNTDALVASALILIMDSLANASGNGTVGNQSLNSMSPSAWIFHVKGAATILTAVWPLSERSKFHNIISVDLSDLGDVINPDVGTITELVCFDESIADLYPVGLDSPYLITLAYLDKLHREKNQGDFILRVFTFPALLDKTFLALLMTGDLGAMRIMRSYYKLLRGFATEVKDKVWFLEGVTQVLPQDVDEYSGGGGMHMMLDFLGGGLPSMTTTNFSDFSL
# Assay: PBM E-score (8-mer binding enrichment) (E-score (-0.5 to 0.5)); higher = stronger / more preferred TF binding; most listed sequences are background and not binding sites
# Conditions: protein concentration: 200 nM; construct: GST-full length
# Method: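 Universal 'all 10-mer' protein binding microarrays (Agilent AMADID 015681) probed with GST-tagged S. cerevisiae TFs (full-length or DBD) made by in vitro transcription/translation (PURExpress), about 100-200 nM. Bound TF was detected with fluorescent anti-GST. Each ungapped 8-mer (which stands for itself and its reverse complement) is scored by the PBM enrichment score (E-score), a modified Wilcoxon-Mann-Whitney statistic from -0.5 to +0.5, computed with the Universal PBM Analysis Suite. Scale: above 0.35 generally sequence-specific binding.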
row,Sequence,PBM E-score
1,CACTTGTC,-0.071
2,ACGCTGAA,0.0992
3,CAAATGAC,-0.272
4,GCGTAGTA,-0.192
5,AATAGCAC,-0.143
6,GCCAGGCC,-0.0468
7,AACTCAAC,0.00714
8,GTCATCAA,-0.0824
9,ATGGGATG,-0.211
10,ACCTAAGG,-0.226
11,ATTTTCGC,-0.00681
12,CTGGCACA,-0.257
13,CACGTTGA,-0.177
14,GGTTCGGA,-0.168
15,AGCAAACG,0.316
16,ATGAGCGA,0.315
17,ATTTAACC,-0.0686
18,GTTTAGCA,0.233
19,TCTACAGA,-0.13
20,AAGCGAGA,0.264
21,ACCTCGGA,0.0635
22,GCGGCACA,-0.164
23,GACCCGGC,-0.0556
24,AGATGCGA,0.114
25,CTCCGGGA,-0.123

row,Sequence,PBM E-score
1,CCAAGAGA,-0.354
2,AGTTGAAA,-0.237
3,CGTTTTGA,0.131
4,CCGACAAG,-0.0687
5,ATATGTGA,-0.168
6,CCCTCTCC,-0.339
7,CCAGTGGA,-0.274
8,CATCTGCG,-0.0711
9,TACCTAAA,0.00388
10,GGGCGGAC,-0.202
11,CTGTGCGC,-0.107
12,GTTGAAAC,0.0874
13,TGGCACAA,-0.131
14,ATAACTGA,0.0462
15,CTTCACAC,0.00226
16,AGGTTCAA,-0.0255
17,ATAGTAGG,-0.162
18,TCGTGGAA,0.0697
19,AAGAAGCC,-0.0707
20,CGAGATTA,0.133
21,GAGTAATA,0.0679
22,ACATTACT,-0.107
23,CCATTAAC,0.0793
24,AGACTCTC,-0.0264
25,CCGGTTGC,0.00729

row,Sequence,PBM E-score
1,ACACCGTG,-0.198
2,AATGGCGA,-0.129
3,GGTGTGAA,-0.141
4,CGTTGCAG,0.0589
5,ACATTAGA,-0.078
6,CCTAATAG,-0.215
7,GTGCTTTA,0.166
8,CACACATG,-0.19
9,GAGAGCGA,0.209
10,CCTTTGCC,-0.176
11,AATTCGTA,0.433
12,CCTAGCTC,-0.228
13,TAATCGAA,0.226
14,GGTTTTAA,0.13
15,AGACCCTG,-0.259
16,AACATGCA,0.0114
17,CCACTGCA,-0.289
18,CAAGATGG,-0.299
19,GGCTTGAA,-0.182
20,CCAACCCG,0.0328
21,TCGATAAA,0.162
22,CACTTTGG,-0.0881
23,CATCTAAG,-0.0826
24,AGACCTAC,-0.0654
25,AGGGGTTA,-0.18

row,Sequence,PBM E-score
1,GCCTTCAC,-0.164
2,CAAATTGG,-0.0221
3,AAATGGGA,-0.253
4,GCGAAAAA,0.148
5,AGACGGCC,-0.222
6,GATGGCGC,-0.156
7,CGTGGATC,-0.0373
8,ATAGGCAT,-0.102
9,CTGTCAAA,-0.0412
10,GTCACACA,-0.147
11,ACTACTAT,0.068
12,GCGAGTCC,-0.0536
13,CTGTCGCC,-0.209
14,ATCGGGCC,-0.122
15,GAGCTCTA,-0.155
16,CGCCTGGA,-0.212
17,AATCAACA,0.0242
18,CTTGAGCC,-0.23
19,ACGTAAGA,0.146
20,TAATTCAA,0.145
21,GACTCGAA,-0.194
22,AGTGGAAA,-0.142
23,AAGCAGAC,-0.191
24,CTTCATAC,0.114
25,ATCAACAC,-0.0611

row,Sequence,PBM E-score
1,ACATCTAG,-0.0171
2,TCTAGACA,-0.173
3,CCGTGCGA,0.131
4,CTGAAAGA,-0.0424
5,ACCATGGC,0.0704
6,CCATCCCG,-0.133
7,AAAAGATA,0.141
8,CTTATCCA,-0.0711
9,AACTCCTG,-0.179
10,TATCTCAA,0.118
11,AACCGATA,0.319
12,GATTTGCA,-0.0802
13,GGCAATAC,0.154
14,CGAGACCG,0.153
15,GCCTTCGA,-0.0568
16,ACGTGCTC,-0.0592
17,CAGAAGCA,-0.142
18,ACGGCTCA,0.00728
19,ATACTAAC,0.0686
20,ACGTATCG,0.22
21,AGCGAGAA,0.23
22,TCAACAGA,-0.169
23,CGCAGTGC,-0.23
24,CGGAATTC,-0.0069
25,ACCGTGCC,-0.113

row,Sequence,PBM E-score
1,CTTATTAC,0.0164
2,CCCGGGCG,-0.123
3,ACGTACTG,0.0569
4,CACGTAGG,-0.165
5,ACAATTCA,-0.072
6,TCCTGTAA,0.003
7,ATGTATTC,-0.166
8,ACACCTGC,-0.0696
9,ACCTACTG,-0.192
10,CTGCGAGA,-0.0705
11,GATCACCC,-0.0409
12,ACTGCTGG,-0.172
13,CGTGCACC,-0.00289
14,ACGAGTAA,0.348
15,GCTCAGTA,0.199
16,ATACAGCG,-0.129
17,CTTATAAC,0.179
18,AAAGTTTG,-0.135
19,CTACCCAC,-0.137
20,CTCGGCCA,-0.0714
21,ATTTATAC,0.41
22,AATTGGCC,-0.129
23,GCCTTCCA,-0.285
24,TATCATGA,0.0143
25,GACCCGAC,-0.0439

row,Sequence,PBM E-score
1,ACCTTATA,0.0597
2,CCAAACGG,0.365
3,ACCTAGAA,-0.242
4,CGTTACTC,0.059
5,CCGGTTAA,0.0326
6,CGCAGGTA,0.145
7,AGCCGGAC,0.00819
8,GGGGAGAA,-0.0119
9,CGCCCCCC,-0.298
10,ATTCCCTC,-0.159
11,AAGCGGGT,0.0067
12,CCTTAAGA,-0.0783
13,GAACAGAA,-0.163
14,GTAAAGTA,0.161
15,CAAGTGTC,-0.212
16,AACCAGAG,-0.00548
17,CCAATGTA,-0.086
18,GCACGACC,-0.2
19,AGTTGGAT,-0.0828
20,CGACATAC,0.244
21,GCAGGATA,-0.236
22,AGTTACAC,0.0388
